Test results reported in PubChem BioAssay AID1656 (Sanford-Burnham Center for Chemical Genomics, 2009).
Some of the results follow. Shown are side measurements of this screen, not its main read-out; they come without a call. Compounds called inactive in the main read-out are mostly missing here.

Test: oleate-induced lipid droplet accumulation in AML12 cells – imaging, high-throughput imaging, BODIPY stain, primary screen (AID 1656);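 note: cells counted across two imaged fields per well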
Conditions: AML12 mouse hepatocytes, oleate lipid droplets, measured here: cell count, cytotoxicity flag, at 6.5 µM
Procedure, shortened: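 Assay system: AML12 mouse liver cells | Compound dosing: One dose, 6.5 µM compound | Read-out basis: Droplet intensity reduction, % inhibition | Measured by: Fluorescence imaging, 20x objective, two fields per well | Schedule: Overnight treatment with compound plus oleate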

SMILES	cell count [cells]
Cc1ccc(-n2nnnc2SCC(=O)Nc2ncc(Cc3ccccc3Cl)s2)cc1	668
CCOc1ccccc1NC(=O)CCCNC(=O)c1ccc(Cl)cc1	813
CCOc1ccccc1NC(=O)CCC(=O)Nc1ccccc1OCC	747
CC(C)c1ccccc1NC(=O)COC(=O)c1c2c(nc3ccccc13)CCN(Cc1ccccc1)C2	650
COc1ccc(N=C2C(=Nc3ccc(OC)cc3)N(c3ccc(N(C)C)cc3)C(=S)N2c2ccc(OC)cc2)cc1	682
CCOc1nc(-c2ccncc2)nc2ccccc12	750
Cn1c(=O)c(C(=O)COC(=O)c2cc(C3CC3)nc3ccccc23)c(N)n(Cc2ccccc2)c1=O	731
O=C(Cc1cccc2ccccc12)Nc1nc(-c2cccc([N+](=O)[O-])c2)cs1	693
CCOC(=O)c1ccc(NC(=O)CN(Cc2ccc(Cl)cc2)S(C)(=O)=O)cc1	790
CN(C(=O)CSc1cc(C(=O)c2nccn2C)c2ccccc2n1)c1ccccc1	641
COc1ccc(F)cc1CN1CCN(c2ncnc3scc(-c4ccccc4)c23)CC1	662
CCOc1ccc(C(=O)CCC(=O)NCC(=O)OCc2ccccc2)cc1OCC	802
CC1=C(C(=O)Nc2cccc(F)c2)C(c2ccsc2)C2=C(CC(C)(C)CC2=O)N1 (stereo not given)	205
Cc1oc2ccc(OCc3ccc(F)cc3Cl)cc2c1C(=O)O	755
COc1cc(NC(=O)c2cccs2)c(OC)cc1NC(=O)CCC(=O)Nc1ccc(C)cc1	756
CCOc1ccc(CCNC(=O)COC(=O)c2cc(OC)cc(OC)c2)cc1OCC	700
C=CCN1C(=O)c2ccccc2Sc2ccc(C(=O)NCC(OC)OC)cc21	881
C/C(=N\Nc1ccc(S(=O)(=O)Nc2ccccc2)cc1[N+](=O)[O-])c1ccc(N2CCOCC2)cc1	713
COc1ccc(/C=N/NC(=O)COc2ccccc2-c2ccccc2)cc1	146
CCn1cc(CCCC(=O)NCc2ccccc2OC)c2ccccc21	834
O=C(COc1ccc(Cl)cc1)Nc1ccc2c(c1)C(=O)NC2=O	737
COc1ccc(C(=O)OCC(=O)NC(C)CCc2ccccc2)c(OC)c1 (stereo not given)	810
CCOc1ccc(CCNC(=O)/C=C/c2ccco2)cc1OCC	696
Oc1ccc(N=Nc2cccc(C(F)(F)F)c2)cc1C=Nc1ccc(N2CCOCC2)cc1	537
Cc1ccc(Sc2c(CO)c(-c3ccccc3)nn2C)cc1	281

SMILES	cell count [cells]
COc1cccc(N/C(N)=N/c2nc(CSc3ccccn3)cc(=O)[nH]2)c1	204
Cc1nc(NC(=O)c2ccc(OCC(C)C)cc2)sc1Cc1ccc2c(c1)OCO2	588
CCOCCn1c(=NC(=O)c2cc3ccccc3oc2=O)sc2cc(S(N)(=O)=O)ccc21	288
Cc1cc(C(=O)N2CCc3c([nH]c4ccccc34)C2c2cccc(Cl)c2)nn1C (stereo not given)	765
C=C(C)c1cccc(C(C)(C)NC(=O)Nc2ccccc2OCC)c1	671
COc1ccc(C2CC(c3cccs3)=NN2C(=O)c2ccc(Br)o2)cc1 (stereo not given)	730
CCOc1ccc(N(CC(=O)Nc2ccccc2OCC)S(=O)(=O)c2c(C)noc2C)cc1	198
COC(=O)C1=C(C(=O)OC)SC(=C2C(=S)C(C)(C)N(C(=O)C(C)C)c3ccccc32)S1	721
COc1cc([C@@H]2c3cc4c(cc3[C@H](O)[C@H]3COC(=O)[C@H]23)OCO4)cc(OC)c1OC	40
Cc1ccc(C)c(NS(=O)(=O)c2ccc(-c3cnc(C4CC4)o3)cc2)c1	227
Cc1cccc(C(=O)N2CCN(CCNC(=O)C(=O)Nc3ccc(F)cc3)CC2)c1	166
CCOc1ccc(NS(=O)(=O)c2ccc(C(=O)N(CC)CC(=O)NCc3cccs3)cc2)cc1	850
CCOC(=O)N1CCN(C(=O)CSCC(=O)Nc2nc(-c3cccs3)cs2)CC1	764
O=C(COC(=O)c1cc2ccccc2cc1O)Nc1cccnc1Cl	290
CCOc1ccc(CCNC(=O)CCc2nnc3ccc(N4CCCCC4)nn23)cc1OCC	709
C=CCNC(=S)NNC(=O)C(CCCC)CC(C)(C)O (stereo not given)	127
COc1n[nH]c(C(=O)Nc2cc(F)ccc2C)c1[N+](=O)[O-]	732
Cc1cccc2sc(NC(=O)CN(C)S(=O)(=O)c3cccs3)nc12	797
COc1ccc(OCCNc2cc(Cl)ccc2[N+](=O)[O-])cc1	233
CCCCCn1c(N)c(-c2nc3ccccc3s2)c2c([N+](=O)[O-])nn(CC)c(=O)c21	755
CCOc1ccc(CCNC(=O)CCC(=O)N2CCOc3ccc(C)cc32)cc1OCC	757
O=C(CSc1nc2[nH]ncc2c(=O)[nH]1)NCc1ccccc1	283
CCCCCCCNC(=O)C1(CC2CC(c3ccc(Cl)cc3)=NO2)CCN(C(=O)c2cc(OCC)c(OCC)c(OCC)c2)CC1 (stereo not given)	822
COc1ccccc1CNS(=O)(=O)c1ccc2c(c1)CC(C)N2C(=O)C1CCC1 (stereo not given)	760
CCOc1ccc(CCNC(=O)CCC(=O)N2CCSc3ccccc32)cc1OCC	793

SMILES	cell count [cells]
O=C1/C(=C/c2ccc([N+](=O)[O-])cc2)CCC1C1CCCC1 (stereo not given)	829
CCOc1ccc(OCc2ccc(C(=O)N/N=C(\C)c3ccccn3)cc2)cc1	244
Cc1cc(C)cc(NC(=O)CSc2nc3ccccc3nc2N2CCCC2)c1	736
CCOC(=O)C1CCN(C(=O)C2(NC(=O)Nc3ccccc3Cl)CCCCC2)CC1	743
CCCCCc1cc(=O)oc2c(C(CCN3CCCC(C)C3)c3ccc(N(C)C)cc3)c(OC)cc(OC)c12 (stereo not given)	707
CC(=O)c1ccc(Nc2nc(=O)c3cccnc3s2)cc1	749
COc1cc(C2C=C(c3cccs3)Nc3ncnn32)cc(OC)c1OC (stereo not given)	177
CCOc1ccc(CN(C)C(=O)NNC(=O)c2ccc(C)cc2)cc1OC	822
COc1ccc(C(=O)OC(C)C(=O)NC(C)CCc2ccccc2)cc1OC (stereo not given)	860
CCOc1ccccc1NC(=O)CCCNC(=O)Cn1cnc2sc(C)c(C)c2c1=O	801
COc1ccc(Br)cc1CNC(=O)CCCc1cn(C)c2ccccc12	731
CCOC(=O)c1ccc(NC(=O)COc2ccc(S(=O)(=O)NC(C)(C)C)cc2)cc1	705
Cc1ccc(NC(=O)CN(C)S(=O)(=O)c2cccs2)c(Br)c1	856
CCCOc1ccc(C2=NNC(c3cccs3)=Nc3ccc(OC)cc32)cc1	806
Cc1ccc(NC2=C/C(=N\S(=O)(=O)c3cccs3)c3ccccc3C2=O)c(C)c1	142
COc1ccccc1N1CCN(C(=O)COc2ccc(S(=O)(=O)NC(C)(C)C)cc2)CC1	710
Cc1ccc(CN2CCc3c(OCC(=O)Nc4cc(C)ccc4C)cccc3C2=O)cc1	226
O=C(CN(CC1CCCO1)S(=O)(=O)c1ccc(S(=O)(=O)NC2CC2)cc1)Nc1ccccc1 (stereo not given)	714
OCCCNc1cc(-c2ccnc(Nc3cccc(Cl)c3)n2)ccn1	393
Cc1cccc(N(Cc2cc(=O)[nH]c3ccccc23)C(=O)CCl)c1	839
COc1cc(C(=O)N/N=C/c2sccc2C)cc(OC)c1OC	144
CCc1cccc(NC(=O)CCCn2nc(CC)n3c(cc4occc43)c2=O)c1	686
CCOc1ccc(NS(=O)(=O)c2ccc(C(=O)N3CCCCC3)cc2)cc1	827
Cn1cccc1-c1cc(C(=O)N/N=C/c2ccc(F)cc2)[nH]n1	53
CCCCOc1ccc(C(C)NC(=O)CCS(=O)(=O)Cc2ccc(C)cc2)cc1 (stereo not given)	614

SMILES	cell count [cells]
CCc1nnc(NC(=O)c2ccc(COc3cccc(C)c3)o2)s1	13
Cc1ccc(C(C(=O)NC(C)(C)C)N(Cc2ccco2)C(=O)CCC(=O)Nc2ccccn2)cc1 (stereo not given)	820
CCOc1ccc(C2=NNC(c3cccs3)=Nc3ccc(OC)cc32)cc1OCC	745
O=C(NC1CCCc2c1cnn2-c1cc(F)cc(F)c1)c1ccccn1 (stereo not given)	698
CCOC(=O)[C@@H]1[C@H]2COc3ccc(Br)cc3[C@@H]2N2C(=O)N(c3ccc(C(F)(F)F)cc3)C(=O)[C@@]12C	764
CCOc1ccc(CCNC(=O)COC(=O)/C=C/c2ccc(OC)c(OC)c2)cc1OCC	662
CCOc1ccc(CCNC(=O)c2ccc3ccccc3n2)cc1OCC	709
COc1ccccc1NC(=O)N1CCC(c2nc3cc(C)c(C)cc3[nH]2)CC1	137
CCOc1ccc(CCNC(=O)CN2C(=O)NC3(CCCC3)C2=O)cc1OCC	858
CCOc1ccccc1NC(=O)N1CCCC1C(=O)NCc1cccs1 (stereo not given)	734
O=C(CSc1nc(O)cc(=O)[nH]1)N1c2ccccc2Sc2ccccc21	721
O=C(NCc1ccc2c(c1)OCO2)c1cc(-c2ccccn2)nc2ccccc12	742
COc1ccccc1-c1nnc(Nc2nc3c(OC)cccc3s2)o1	224
O=c1c(C/C=C/c2ccccc2)c(O)ccn1CCc1c[nH]c2ccccc12	644
COc1cc(NC(=O)c2ccco2)c(OC)cc1NC(=O)Nc1ccccc1Cl	734
Cc1cccc(Nc2ncnc3ccccc23)c1	521
CCOc1ccc(CCNC(=O)Nc2ccccc2C)cc1OCC	398
CN(C)S(=O)(=O)c1ccc(C(=O)NCC2CC2(Cl)Cl)cc1 (stereo not given)	202
Cc1ccc(C)c(C(=O)N2CCN(c3ncccn3)CC2)c1	839
O=C(CSCC(=O)N1CCCc2ccccc21)Nc1nc(-c2ccccc2)cs1	711
Cc1cccc(C(=O)N[C@H](C(=O)Nc2nc3ccccc3[nH]2)C(C)C)c1	249
COc1ccc(OC)c(NC(=O)Cc2coc3ccc4ccccc4c23)c1	719
O=C(CSC1=NC2(CCCCCC2)N=C1c1ccccc1)Nc1ccc2c(c1)OCCO2	781
COc1ccc(C(=O)O/N=C(\N)c2ccccn2)cc1	843
CCOc1ccccc1NC(=O)c1cccc(NC(=O)C2CCCC2)c1	823
